# Laboratory results taken from the supplement of paper PMC4166925.
# ± gives the standard deviation of the averaged measurements. Whole data set: some 33,000 sequences, median “E-score (dimensionless, -0.5 to 0.5)” near -0.049, cut for the highest 2% near 0.37. This is one part of the list.
# Test system: T1, PmTbr T-box DNA-binding domain (GST fusion)
# T1 sequence: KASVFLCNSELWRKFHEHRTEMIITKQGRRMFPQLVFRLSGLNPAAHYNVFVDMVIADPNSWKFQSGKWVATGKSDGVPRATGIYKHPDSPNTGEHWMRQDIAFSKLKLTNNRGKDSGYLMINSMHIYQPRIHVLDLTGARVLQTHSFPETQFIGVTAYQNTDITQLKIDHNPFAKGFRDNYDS
# Assay: PBM E-score of 8-mer (E-score (dimensionless, -0.5 to 0.5)); Tbr is Tbrain of the sea star Patiria miniata (Pm) or the sea urchin Strongylocentrotus purpuratus (Sp); higher = stronger binding preference; most listed sequences are background and not binding sites
# Settings: the construct has about 5 more residues each side
# Procedure, shortened: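 Each ungapped 8-mer received an enrichment E-score from the Universal PBM Analysis Suite, averaged over duplicate arrays. The proteins were Tbr T-box DNA-binding domains, covering the whole T-box plus about five flanking residues, fused to GST and expressed in BL21 E. coli at 20 °C before glutathione affinity purification. Universal Agilent oligonucleotide arrays were made double-stranded by primer extension and incubated with 200 nM protein in PBS (pH 7.5). The arrays were then scanned and quantified, and every 8-mer was scored from probe intensities.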
row,Sequence,PBM E-score of 8-mer
1,ATCATCAG,-0.0627 ± 0.032
2,CCGGCGCG,0.143 ± 0.048
3,CCGCTTCG,0.0891 ± 0.019
4,CGGTTGGA,0.057 ± 0.023
5,AACAAGCA,-0.0887 ± 0.015
6,AGTATCAA,-0.0174 ± 0.082
7,ATTGCAGG,-0.231 ± 0.069
8,TTTACAAA,-0.0854 ± 0.12
9,ATTGAAAT,-0.248 ± 0.013
10,AGATGGTG,0.176 ± 0.0046
11,TACACATA,0.115 ± 0.032
12,AGGTAGCG,0.22 ± 0.027
13,AGGGCTGA,-0.187 ± 0.028
14,ACTGAACA,0.0291 ± 0.013
15,GAGGATAA,-0.0813 ± 0.021
16,AGCAAGAG,-0.138 ± 0.03
17,GCATATGC,0.0124 ± 0.068
18,ACGCCGGC,0.2643 ± 0.0011
19,AAGTAAAT,-0.0707 ± 0.066
20,CTGCTTTC,-0.0616 ± 0.037
21,ATGGACAC,0.0441 ± 0.018
22,AGGGCCGA,-0.162 ± 0.019
23,CGGTAGCA,0.26 ± 0.0077
24,ACGCGGCA,0.129 ± 0.054
25,CAGGATGC,-0.0559 ± 0.0028

row,Sequence,PBM E-score of 8-mer
1,GAAAAGAA,-0.0545 ± 0.075
2,AAGCATGC,-0.174 ± 0.031
3,AGCTGTGC,0.182 ± 0.0098
4,GGCACACC,0.298 ± 0.06
5,CGACTAAG,-0.0926 ± 0.072
6,ATTTTCCC,-0.0127 ± 0.032
7,GTATTTAA,-0.118 ± 0.089
8,TCTACGAA,-0.117 ± 0.11
9,TCTGCAGA,-0.3409 ± 0.0011
10,AGATCTAG,0.041 ± 0.014
11,ATTTGATA,0.0722 ± 0.095
12,AGCATACT,-0.0101 ± 0.03
13,CCATACTA,-0.195 ± 0.026
14,CTCGTACC,-0.0975 ± 0.072
15,GCCTCGAC,-0.0484 ± 0.09
16,ACGTAAGG,-0.102 ± 0.011
17,AGTGGGAG,-0.0233 ± 0.036
18,AGTGTCGC,0.415 ± 0.019
19,ATAGATAT,-0.133 ± 0.073
20,ACAACCTG,0.139 ± 0.026
21,ATACACCA,-0.00568 ± 0.095
22,CTACCGAC,0.0165 ± 0.027
23,GCCCAGCC,-0.121 ± 0.062
24,AAAACGGT,0.0277 ± 0.031
25,ATTTTGAC,0.216 ± 0.05

row,Sequence,PBM E-score of 8-mer
1,ACTGATCC,-0.262 ± 0.077
2,AACCACCC,-0.132 ± 0.045
3,GACTATAA,-0.0765 ± 0.058
4,AATCACAG,0.0723 ± 0.038
5,CAATTACG,-0.0788 ± 0.0072
6,CTGAAACC,-0.0317 ± 0.0024
7,AAACAAAT,0.0475 ± 0.046
8,GCAAAACC,0.0336 ± 0.0076
9,CCCTAGAA,-0.22 ± 0.029
10,CAGAACGG,-0.0839 ± 0.018
11,ACACGTAT,0.2939 ± 0.0019
12,CGTCCCGA,-0.201 ± 0.056
13,AAGTACCT,-0.33 ± 0.006
14,CGAAATTC,0.0215 ± 0.011
15,ACGATCAC,0.0556 ± 0.071
16,ATGCTGGC,-0.051 ± 0.074
17,CGGAAATA,-0.08127 ± 1.4e-05
18,AACTGCTT,0.011 ± 0.058
19,AATAGCCC,-0.1898 ± 0.001
20,ATTGGTTA,-0.113 ± 0.039
21,ACGCCGCG,0.0658 ± 0.049
22,TACGCGGA,-0.235 ± 0.0042
23,AGAATGTA,-0.181 ± 0.013
24,CCCGAACA,-0.172 ± 0.03
25,GGTTGCAA,0.172 ± 0.0051

row,Sequence,PBM E-score of 8-mer
1,CCTTCAGC,-0.0895 ± 0.022
2,CCGCGGAG,-0.00122 ± 0.011
3,CAGACATA,0.111 ± 0.023
4,AAACGGCA,0.0707 ± 0.068
5,ACTAGCGA,0.103 ± 0.036
6,ATACATCA,-0.0384 ± 0.026
7,GTCTTCAA,-0.0747 ± 0.03
8,GGGCTCAA,-0.182 ± 0.072
9,CAGAGGTA,-0.318 ± 0.012
10,GGATCCAC,-0.0343 ± 0.033
11,GATGCCGC,-0.0448 ± 0.13
12,CTAACACC,0.4751 ± 0.004
13,CGAGCTCG,-0.121 ± 0.09
14,GGCGTAGA,-0.0472 ± 0.11
15,AATTCGCA,0.339 ± 0.032
16,GATCACGA,-0.0688 ± 0.047
17,CGCGTAGC,0.101 ± 0.0029
18,CCCTACGG,-0.107 ± 0.04
19,GACACTAC,0.288 ± 0.031
20,ATACTCGC,0.118 ± 0.008
21,CTAGAATA,0.00046 ± 0.034
22,GAGCACTA,-0.0401 ± 0.011
23,ATCGCAAA,0.11 ± 0.085
24,GCTAATCA,0.054 ± 0.0042
25,AAGATGGA,-0.228 ± 0.058

row,Sequence,PBM E-score of 8-mer
1,AGCGTTGG,0.112 ± 0.048
2,GCTGCCCA,-0.0746 ± 0.1
3,TATTGCCA,-0.026 ± 0.033
4,GCGCTGGA,-0.0335 ± 0.037
5,ATTCGCTC,-0.0943 ± 0.028
6,CGAAGTCA,0.00257 ± 0.055
7,GATGTTCC,-0.155 ± 0.013
8,ACAGCTCC,0.194 ± 0.055
9,TACAATCA,-0.16 ± 0.02
10,AAATGTAG,-0.144 ± 0.071
11,ATTCGTAC,-0.051 ± 0.066
12,AAGAGATA,0.0142 ± 0.029
13,GATCGACA,0.275 ± 0.023
14,AATCTTGT,-0.00217 ± 0.087
15,GTCGCAGA,-0.0531 ± 0.0046
16,ACCCTCCC,0.0189 ± 0.0043
17,CCATTTGA,-0.252 ± 0.017
18,CGTGCTAA,0.378 ± 0.021
19,TCTTCGCA,0.286 ± 0.051
20,CTTCAGTC,-0.0457 ± 0.017
21,AACGAAGG,-0.219 ± 0.07
22,TACTCCAA,0.0525 ± 0.027
23,ACGTCAAC,0.0351 ± 0.053
24,GATCAGGC,-0.1781 ± 0.00018
25,ATTGAGTG,0.161 ± 0.078

row,Sequence,PBM E-score of 8-mer
1,TCCAAGGA,-0.3385 ± 0.0028
2,AGTCTAGA,-0.238 ± 0.057
3,ATATCTGC,-0.0339 ± 0.014
4,ACGATAAA,0.122 ± 0.051
5,ACGTCCCT,-0.252 ± 0.034
6,GTTGACTA,0.155 ± 0.052
7,ACATGTAA,0.0256 ± 0.022
8,GCCTTGGA,-0.126 ± 0.021
9,AACTCTCT,-0.0883 ± 0.024
10,AAAGTAGG,-0.07 ± 0.0051
11,AGAGGCTG,-0.151 ± 0.025
12,CTCAAACA,-7.5e-05 ± 0.056
13,TAGGCCCA,-0.256 ± 0.032
14,ACTGCCCG,-0.05 ± 0.0071
15,ATGTGAAC,0.175 ± 0.039
16,AGCGCTTA,0.213 ± 0.018
17,ACGACAAC,0.196 ± 0.0092
18,TAAATTAA,-0.18 ± 0.074
19,CCTTGATA,-0.0112 ± 0.1
20,ATTGCACC,0.257 ± 0.0088
21,ATCTAGCA,0.227 ± 0.027
22,GGCGCTTA,-0.0559 ± 0.037
23,ATATTAAT,-0.24 ± 0.085
24,CACCATTA,0.0602 ± 0.064
25,ACTGCTTA,-0.0719 ± 0.035

row,Sequence,PBM E-score of 8-mer
1,ATATGACG,0.104 ± 0.019
2,CATCTCGG,-0.165 ± 0.025
3,AGAGCCAG,0.0137 ± 0.042
4,ACCACAGA,-0.158 ± 0.048
5,AAATCGTC,0.139 ± 0.023
6,AACCACCA,-0.0955 ± 0.055
7,AACGCTTC,0.0357 ± 0.13
8,CTAAAGAA,0.00353 ± 0.015
9,ACCGCGGG,-0.0886 ± 0.011
10,AGCCGCAT,-0.0864 ± 0.0094
11,ATGAAAAG,0.0999 ± 0.082
12,CTCTAGAC,-0.104 ± 0.013
13,ACATACTA,-0.0706 ± 0.017
14,ACTACCGG,-0.0106 ± 0.025
15,GCAATGGA,-0.158 ± 0.028
16,AAACAAGT,-0.0555 ± 0.011
17,CTGGGGCC,-0.217 ± 0.052
18,AGCCCCGC,-0.0835 ± 0.072
19,AAGTGGCA,0.356 ± 0.011
20,GATGCCCC,-0.112 ± 0.044
21,TCGCAACA,0.265 ± 0.0076
22,ATTGACCA,-0.26 ± 0.045
